Assay results from PubChem BioAssay AID1240 (Sanford-Burnham Center for Chemical Genomics, 2008).
About 800 (1.6%) of roughly 50,000 compounds showed an effect of 50% or more. Some of the results follow.

Target: Bcl-2-like protein 10 (Homo sapiens) (UniProt Q9HD36)
Experiment: TR3 peptide-Bcl-B binding displacers, biochemical primary FP assay, phenotype converters (AID 1240);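 further: 0% = Bcl-B with tracer peptide and DMSO and 100% = tracer peptide lacking Bcl-B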
Settings: GST-Bcl-B / FITC-TR3 peptide fluorescence polarization; stronger effect = higher value; compound at 3.75 mg/L

Sequence of UniProt Q9HD36 (Q9HD36 whole entry, looked up): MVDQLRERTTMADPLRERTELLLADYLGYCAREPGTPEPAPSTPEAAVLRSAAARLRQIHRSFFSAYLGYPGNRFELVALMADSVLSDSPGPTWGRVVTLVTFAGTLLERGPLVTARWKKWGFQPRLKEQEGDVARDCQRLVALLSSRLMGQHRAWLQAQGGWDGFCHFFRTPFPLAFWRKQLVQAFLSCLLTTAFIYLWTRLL

In order of rising displacement:
1. O=C1CSc2ccc([N+](=O)[O-])cc2N1Cc1ccccc1F  -92%
2. O=C(N=c1ccccn1O)C(O)(c1ccccc1)c1ccccc1  -28.4%
3. Cc1[nH]n(-c2ccccc2)c(=O)c1/C=N/Nc1ccccn1  -21.3%
4. Cc1ccc(S(=O)(=O)N2CCN(Cc3ccccn3)CC2)cc1  -20.2%
5. CN(C)c1ccc(C2CC(c3cccs3)=NN2C(=O)CCC(=O)O)cc1 (stereo not given)  -17.8%
6. CC1CCOP(=O)(C(Nc2ccc([N+](=O)[O-])cc2)c2ccc(Br)cc2)O1 (stereo not given)  -15.1%
7. O=C(COc1ccc2ccccc2c1)Nc1ccc(S(=O)(=O)Nc2nccs2)cc1  -11.8%
8. CC(Oc1cccc(Cl)c1)C(=O)N1CCN(c2ccc(Cl)cc2)CC1 (stereo not given)  -11.8%
9. COc1ccc(NC(=O)/C=C/c2ccco2)cc1OC  -11.8%
10. O=[N+]([O-])c1cc(C(F)(F)F)ccc1Sc1ccccn1  -10.8%
11. CCN(c1ccccc1)S(=O)(=O)c1ccc(OC)cc1  -10.7%
12. Cc1cc(NS(=O)(=O)c2ccc(NC(=O)c3ccco3)cc2)nc(C)n1  -10.4%
13. Clc1ccc(-n2ncnc2-c2ccc(Br)cc2)cc1  -10.1%
14. COCCOC(=O)C1=C(C)NC(=O)CC1c1cccc(Cl)c1 (stereo not given)  -9.8%
15. CCOC(=O)CC1CSc2nc3sc(C)c(C)c3c(=O)n21 (stereo not given)  -9.2%
16. O=C(CSc1nc2ccccc2o1)Nc1ccccc1  -9%
17. CCOC(=O)Nc1nnc(CC(C)C)s1  -9%
18. O=C(CSc1nc2ccccc2s1)NNC(=S)NC1CCCCC1  -8.9%
19. Cc1cc(Cl)ccc1NC1=CC(=O)CC(c2ccccc2)C1 (stereo not given)  -8.5%
20. CC(CCc1ccccc1)NC(=O)C1(c2ccccc2)CCOCC1 (stereo not given)  -8.3%
21. O=C(NC1CCCCCC1)c1ccc(Cl)c([N+](=O)[O-])c1  -8%
22. COc1cccc(NC(=O)/C=C(\C(=O)O)c2ccc(Cl)cc2)c1  -7%
23. c1ccc(-n2c(SCc3cccc4ccccc34)nnc2-c2ccco2)cc1  -5.3%
24. O=C(Nc1cccnc1)c1ccc(-c2ccc(Br)cc2)o1  -5.1%
25. CCOc1ccccc1N(CC(N)=O)S(=O)(=O)c1ccccc1  -5.1%
26. O=C(CN1CCOCC1)Nc1ccc(-c2nc3cc(NC(=O)CN4CCOCC4)ccc3o2)cc1  -4.6%
27. CN(C)CC(=O)C12CC3CCC(CC(C3)C1)C2  -4.6%
28. O=C1c2cccc3cccc(c23)C(=O)N1CCOCc1ccccc1  -4.3%
29. CCOc1ccc(N(CC(=O)Nc2ccc(C)cc2C)S(C)(=O)=O)cc1  -4.2%
30. C=C(Br)Cn1c(SCC)nc2ccccc21  -4.2%
31. Cn1cc(/C=C/c2nc3ccccc3c(=O)n2-c2ccccc2[N+](=O)[O-])c2ccccc21  -4.1%
32. NCC(O)(c1ccc(Cl)cc1)c1ccc(Cl)cc1  -3.8%
33. CC1=C(C#N)c2nc(N)c(C#N)c(C)c2/C1=C\c1ccc(-c2cccc(Cl)c2)o1  -3.2%
34. COc1ccc(Cl)cc1NC(=O)c1c(O)c2ccccc2n(CC(C)C)c1=O  -2.8%
35. O=C1NCCCc2nc(N3CCOCC3)sc21  -2.6%
36. O=C(c1ccccc1F)N1CCN(C2CC3CCC2C3)CC1 (stereo not given)  -2.6%
37. CC(C)c1ccccc1NS(=O)(=O)c1ccc(Cl)cc1  -2.6%
38. O=C(O)CN1C(=O)/C(=C/c2ccc(OC(=O)c3ccccc3I)cc2)SC1=S  -2.4%
39. Cc1cccc(N/C=C/C(=O)c2ccc(Cl)cc2)c1  -2.2%
40. C=C(C)COc1ccc2c(-c3ccccc3)cc(=O)oc2c1OCC(=C)C  -1.9%
41. c1coc(-c2nc3c(ccc4ccccc43)[nH]2)c1  -1.8%
42. O=C(CC1c2ccccc2Oc2ccccc21)Nc1ccccc1F  -1.1%
43. COc1ccc(CNc2ccc3c(c2)ncn3C)cc1  -1%
44. O=C(Nc1ccc(OCc2ccccc2)cc1)Nc1cccc(Cl)c1  -0.6%
45. CC1(C)CC(NC(=O)c2ccc(I)cc2)CC(C)(C)N1  -0.4%
46. O=C(CC1Sc2ccccc2NC1=O)Nc1cccc(Cl)c1 (stereo not given)  -0.3%
47. COC(=O)C1=CN(Cc2cccs2)C=C(C(=O)OC)C1c1ccc(C(F)(F)F)cc1  0%
48. O=[N+]([O-])c1ccc(N2N=C(c3ccc(O)cc3)CC2c2ccc(F)cc2)cc1 (stereo not given)  0%
49. O=c1oc2cc(OC/C=C/c3ccccc3)ccc2c2c1CCCC2  0%
50. COc1ccc(/C=N/N2CCN(Cc3cccc4ccccc34)CC2)c(OC)c1  0.4%
51. COC(=O)C1=CNC=C(C(=O)OC)C1c1cc(OC)c(Br)cc1OC  0.6%
52. CCOC(=O)C1CCN(CN2C(=O)C(=O)c3cc(Br)ccc32)CC1  0.8%
53. COc1ccc(/C=C/C(=O)Nc2ccc(N3CCOCC3)cc2)cc1OC  0.9%
54. O=C(Nc1ccc(I)cc1Cl)c1ccc(-c2cccc([N+](=O)[O-])c2)o1  1%
55. CC1(C)CC(=NN=C2CC(C)(C)NC(C)(C)C2)CC(C)(C)N1  1.1%
56. COc1ccc(/C=N/N(C)CCN(C)/N=C/c2ccc(OC)cc2)cc1  1.2%
57. CCOC(=O)c1c(C)nn(Cc2ccccc2)c1N  1.3%
58. Cc1c(Cl)cccc1-c1ccc(C(=O)Nc2cccc(NC(=O)c3cccc(Cl)c3)c2)o1  1.8%
59. COc1ccc(C2NN=C(c3ccc(C)cc3)S2)cc1OC (stereo not given)  2.5%
60. O=C(/C=C/c1ccccc1)NC(c1ccccc1)c1ccccc1  2.5%
61. CCOC(=O)C1=C(C)N=c2s/c(=C/c3ccc(C)cc3)c(=O)n2C1c1ccccc1 (stereo not given)  2.5%
62. COc1cc(C2C3=C(CC(C)(C)CC3=O)OC3=C2C(=O)CC(C)(C)C3)cc(Br)c1OC  2.8%
63. CC(C)NC(=O)C1CC(=O)N(c2ccc(Br)cc2)C1 (stereo not given)  2.9%
64. CCN(CC)CCCCCOc1ccc(OC)cc1  3.7%
65. N#C/C(=C\c1ccc(-c2ccc(Cl)cc2)o1)C(N)=O  3.9%
66. Cc1ccc(OCC(=O)N/N=C\c2ccc(OC(=O)c3ccc(Br)cc3)cc2)cc1  5%
67. Cc1onc(-c2ccccc2Cl)c1C(=O)N[C@@H](C)c1ccccc1  5.1%
68. CC(=O)SC(CC(=O)c1ccccc1)c1cn(-c2ccccc2)nc1-c1ccc(C)cc1 (stereo not given)  5.2%
69. COc1ccccc1N1CCN(C(=O)C2CCCO2)CC1 (stereo not given)  5.4%
70. COc1ccc(C2CC(C(F)(F)F)n3nc(C(=O)Nc4cc(C(F)(F)F)ccc4Cl)c(Cl)c3N2)cc1OC (stereo not given)  5.4%
71. CC1=C(C(=O)OC2CCCC2)C(c2ccccc2Cl)C2=C(CC(C)(C)CC2=O)N1 (stereo not given)  6.1%
72. CCOc1ccc(/C=C2\C(=O)NC(=O)N(c3cccc(Cl)c3)C2=O)cc1Cl  6.2%
73. O=C(O)C(Cc1ccccc1)P(=O)(O)CN1CCOCC1 (stereo not given)  6.4%
74. O=c1oc(-c2ccco2)nc2c1cnn2-c1ccccc1  6.5%
75. O=C(Nc1cccc(-c2nc3ccccc3s2)c1)c1cccs1  6.6%
76. Cc1ccc(C=C2C(=O)N(C)C(=S)N(c3ccccc3)C2=O)s1  6.8%
77. CC(C)C(NS(=O)(=O)c1ccccc1[N+](=O)[O-])C(=O)NC(C)(C)C (stereo not given)  7.1%
78. N/C(=N\OC(=O)COc1ccccc1)c1cccnc1  7.1%
79. O=C(N1CCOCC1)N1CCN(c2ccccc2)CC1  7.3%
80. COC(=O)c1cc(NC(=O)/C=C/c2ccc(OC)cc2)cc(C(=O)OC)c1  7.5%
81. Cc1ccc(C(=O)Nc2cc(C)on2)cc1  7.7%
82. COC(=O)c1ccc(COc2ccc3c4c(c(=O)oc3c2)CCC4)cc1  8.5%
83. O=C(CCc1ccccc1)N1N=C(c2ccc(Br)cc2)CC1(O)C(F)(F)F (stereo not given)  8.5%
84. O=C1C(Cc2ccccc2)S/C(=N/N=C/c2ccco2)N1c1ccccc1 (stereo not given)  8.7%
85. Oc1c(Cl)cc(Br)cc1/C=N/Nc1nc(N2CCOCC2)nc(N2CCOCC2)n1  9.3%
86. CC(C)c1cc(NS(=O)(=O)c2ccccc2N)cc(C(C)C)c1O  9.7%
87. CC(/C=N/N1CCN(Cc2ccc(C)cc2)CC1)=C\c1ccco1  9.8%
88. CCOC(=O)c1c(N2CCOCC2)nc2ccc([N+](=O)[O-])cc2c1-c1ccccc1  10.6%
89. CCOC(=O)C1=C(CC)NC2=C(C(=O)CC(C)(C)C2)C1c1ccc(Cl)cc1Cl (stereo not given)  10.8%
90. O=C(NC12CC3CC(CC(C3)C1)C2)C1CC(=O)N(c2ccccc2)C1 (stereo not given)  10.8%
91. CCOC(=O)c1c(NC(=O)c2cccc(OC)c2)sc2c1CCC2  11%
92. COc1ccccc1NC(=O)C(=O)NCc1ccccc1  11.6%
93. COc1ccc(-c2cc(C(=O)Nc3c(C)cccc3C)c3ccccc3n2)cc1  11.8%
94. COc1cc(C(=O)Nc2ccc(N(C)C)cc2)c([N+](=O)[O-])cc1OC  12.2%
95. O=C(/C(=C(\O)c1ccccc1)c1nc2ccccc2[nH]1)c1ccc([N+](=O)[O-])cc1  12.5%
96. O=C(Oc1ccc(/C=C2/SC(=S)N(c3ccccc3)C2=O)cc1)c1ccccc1  13.7%
97. COC(=O)c1ccc(NC(=O)C(C)N2C(=O)c3cccc4cccc(c34)C2=O)cc1 (stereo not given)  13.7%
98. COc1ccc(S(=O)(=O)N(CCc2ccccc2)CC(=O)Nc2ccc3c(c2)OCO3)cc1  14.5%
99. COc1ccccc1NCN1C(=O)S/C(=C\c2ccc(C(C)C)cc2)C1=O  14.7%
100. CC(=O)N(C)CP(=O)(O)CCc1ccccc1  15.4%
101. CC(C)c1ccc(NC(=O)c2ccc(CN3CCc4ccccc4C3)cc2)cc1  16%
102. O=C(NCCNc1ccccc1[N+](=O)[O-])c1ccc(Br)cc1  16.8%
103. CC(=O)Nc1sc2c(c1C(=O)Nc1ccccc1C)CCC2  16.9%
104. O=C(O)CCCCCNC(=O)c1ccccc1O  20.5%
105. CCOC(=O)C1=C(O)/C(=C/c2cc(C)n(-c3cccc(Br)c3)c2C)N=C1C  22.6%
106. O=C1NN(c2ccc(Cl)c(Cl)c2)C(=O)/C1=C/c1ccc(O)cc1O  24%
107. Cc1cc(=O)[nH]c2ccc([N+](=O)[O-])cc12  27.7%
108. CCOC(=O)c1c(NC(=O)Cc2cccs2)sc(C(=O)Nc2ccccc2F)c1C  39%
109. CCN(CC)C(=O)c1sc(NC(=O)c2cc3ccccc3oc2=O)c(C#N)c1C  39.8%
110. CC1=C(C(=O)Nc2ccc(C)cc2)C(c2ccccc2Br)NC(=S)N1 (stereo not given)  84.9%
